# The campaign covered roughly 410,000 compounds. About 5,000 (1.2%) were called active. This list was built around the results that the source calls inconclusive (neither active nor inactive); the mix of calls is not that of the screen. The call rests on the fitted dose curve; in most records, active means well fitted inhibition curve with a large enough effect; inconclusive means small, poorly fitted or top-dose-only effect; inactive means no such curve, though single readings can be large or run the other way. Potencies beside an inconclusive call are fits to weak or partial responses and may not hold up.
# Assay: qHTS for Inhibitors of TGF-b; further: nearly all actives have a fitted effect of over 65% in size
# Conditions: HepG2 CAGA-GFP TGF-b/SMAD3 reporter, GFP fluorescence, 18 h, TGF-beta stimulated, 500 pg/mL final; series mostly up to 46.1 µM; activity, negative = inhibition: at the top concentration
# Method in brief: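 Per well, imaged GFP fluorescence of HEPG2 CAGA-GFP cells gives the signal; cells get compound, then TGF-beta (500 pg/mL final), 18 h at 37 degrees C; %Activity versus -TGF-beta and +DMSO controls.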
# On the % scale 0 is the no-effect control and ±100 the full control effect; potency means the concentration at half of the fitted maximal effect; tags describe the fitted curve by direction and shape.
Structure (SMILES),Potency,"activity, negative = inhibition"
CCOc1c(Cl)cc(CNc2ccc(N3CCCC3)cc2)cc1OC,"inconclusive: 22.4 µM [inhibitor, single point]",
CC(=O)N(/C=C1\SC(=S)N(c2ccccc2)C1=O)c1ccccc1,,inactive: -11%
COc1ccc(Nc2c3c(nc4ccc(C)cc24)CCC3)cc1,"inconclusive: 35.5 µM [inhibitor, single point]",
COc1cccc(OC)c1C(=O)Oc1ccc2c(c1)O/C(=C\c1ccncc1)C2=O,"inconclusive: 3.98 µM [inhibitor, full curve, poor fit]",
COc1cc(NC(=O)C2=C(N3CCOCC3)/C(=C\c3ccc(N(C)C)cc3)CCC2)cc(OC)c1OC,"inconclusive: 7.94 µM [inhibitor, partial curve, poor fit]",
Cc1ccc(C(=O)NCCSC2CCCCC2)cc1S(=O)(=O)Nc1ccccc1,"inconclusive: 35.5 µM [inhibitor, single point]",
COc1ccc(-c2nc3sc(CCNC(=O)c4ccc(Br)o4)c(C)n3n2)cc1,"inconclusive: 35.5 µM [inhibitor, single point]",
O=C(OCC(=O)C12CC3CC(CC(C3)C1)C2)c1ccc(O)cc1,"inconclusive: 22.4 µM [inhibitor, single point]",
Nc1c2c(nc3ccc(Br)cc13)N(Cc1ccccc1)CC2,"inconclusive: 17.8 µM [inhibitor, single point]",
O=C(Nc1ccc(Cl)c(Cl)c1)Nc1nccs1,"inconclusive: 12.6 µM [inhibitor, partial curve, poor fit]",
O=C(Nc1ccc(NC(=S)NC(=O)C(c2ccccc2)c2ccccc2)cc1)c1ccccc1,,inactive: 1.27%
Cc1cc(C)c2cc(C)c3nnc(SCC(=O)NCc4ccc5c(c4)OCO5)n3c2c1,,inactive: -0.0367%
C[C@H](CO)N1C[C@H](C)[C@@H](CN(C)S(=O)(=O)c2ccccc2)Oc2ccc(NS(=O)(=O)c3cccs3)cc2C1=O,"inconclusive: 0.708 µM [inhibitor, partial curve, poor fit]",
COc1ccc(N2C(=O)C(Cl)=C(Nc3ccccc3O)C2=O)cc1,"inconclusive: 12.6 µM [inhibitor, single point]",
Cc1nc(-c2ccc(F)cc2)sc1CCNC(=O)Cc1ccc(F)cc1,"inconclusive: 7.94 µM [inhibitor, partial curve]",
CC(C)C[C@H]1COCCS(=O)(=O)N1Cc1ccc(Cl)c(Cl)c1,"inconclusive: 6.31 µM [inhibitor, full curve, poor fit]",
Cc1ccc(C)c(OCC(=O)NNC(=O)CSC(=S)N2CCCC2)c1,"inconclusive: 3.16 µM [inhibitor, single point]",
COc1cc2nc(-c3ccc(Br)o3)oc(=O)c2cc1OC,"inconclusive: 3.98 µM [inhibitor, single point]",
N#CC(C#N)=C1C(=O)N(CCN2CCCCC2)c2ccccc21,,inactive: 0.545%
C=CCNc1oc(Cc2cccc3ccccc23)nc1C#N,"inconclusive: 15.8 µM [inhibitor, single point]",
CCc1ccc([C@@H]2CC=C(C(=O)O)[C@H](c3ccccc3)N2S(=O)(=O)c2ccc(C)cc2)cc1,,inactive: -4.35%

Structure (SMILES),Potency,"activity, negative = inhibition"
C=C[C@@H]1c2cccc(C)c2N(S(=O)(=O)c2ccc(C)cc2)[C@H](c2ccc(OC(C)=O)cc2)C1(C#N)C#N,"inconclusive: 11.2 µM [inhibitor, partial curve, poor fit]",
OCCNC(=S)Nc1ccc(Cl)c(Cl)c1,,inactive: 2.07%
O=C(Cn1ncc2c1-c1ccccc1OC2)N1CCN(Cc2ccccc2)CC1,,inactive: 0.356%
COc1ccc(CCN2CN(S(=O)(=O)c3ccccc3)c3nc4ccccc4nc32)cc1OC,"inconclusive: 0.0891 µM [inhibitor, full curve, poor fit]",
O=C(CSc1n[nH]c(-c2ccc(Br)cc2)n1)NC1CCCC1,"inconclusive: 15.8 µM [inhibitor, single point]",
COc1ccc(CN2CCNC(=O)C2CC(=O)N(C)C2CCCCC2)cc1OC (configuration not stated),,inactive: 9.71%
CN1CCN(c2ncnc3c2ncn3[C@H]2CN(Cc3ccc(C(=O)O)cc3)C[C@@H](CO)O2)CC1,,inactive: -3.44%
OC[C@@H]1CN(Cc2ccc(Cl)cc2)C[C@H](n2cnc3c(NC4CCC4)ncnc32)O1,,inactive: 5.08%
CCCC(C)NC(=O)CSc1nnc(-c2c[nH]c3ccccc23)o1 (configuration not stated),"inconclusive: 35.5 µM [inhibitor, single point]",
C/C(=N\NC(N)=S)C1(C)CC2(CC(C)(C)OC2=O)C(=O)O1 (configuration not stated),,inactive: 19.9%
Cn1c(=O)c2c(SCC(=O)NCCc3ccccc3)nc(C3CC3)nc2n(C)c1=O,,inactive: 16.9%
c1ccc(C2=Nn3c(nnc3-c3cc(-c4ccccc4)n[nH]3)SC2)cc1,"inconclusive: 35.5 µM [inhibitor, single point]",
CCOC(=O)C1CCCN(C(=O)c2cc3ccccc3oc2=O)C1 (configuration not stated),"inconclusive: 2 µM [inhibitor, partial curve]",
COCCn1nnnc1C(c1ccc(OC)cc1)N1CCC(C)CC1 (configuration not stated),,inactive: 22%
NNC(=O)c1ccc(OCC2CC(c3ccc(Cl)cc3)=NO2)cc1 (configuration not stated),"inconclusive: 35.5 µM [inhibitor, single point]",
O=C(C1CCCO1)N1CCN(c2c3c(nc4cc(-c5ccc(F)cc5)nn24)CCC3)CC1 (configuration not stated),,inactive: -30%
COc1ccc(-n2cc(CNCC3CC(=O)N(C4CC4)C3)c(-c3ccccc3Cl)n2)cc1 (configuration not stated),"inconclusive: 14.1 µM [inhibitor, single point]",
NC(=O)C1CCN(C(=O)COc2ccc3c4c(c(=O)oc3c2)CCCC4)CC1,"inconclusive: 35.5 µM [inhibitor, single point]",
O=C(Cn1c2ccc(F)cc2c2nc3n(c(=O)c21)CCS3)Nc1ccc(Cl)cc1F,"inconclusive: 3.55 µM [inhibitor, full curve]",
COc1ccccc1CNS(=O)(=O)c1ccc(N2CCCC2)cc1Br,"inconclusive: 12.6 µM [inhibitor, partial curve, poor fit]",
CN(C(=O)COc1ccc(Cl)cc1Cl)C1(C)CCS(=O)(=O)C1 (configuration not stated),"inconclusive: 1.41 µM [inhibitor, partial curve]",
